Results on 219 sequences are retold here after publication PMC4242493.

The other results are listed elsewhere or left out. The list includes weakly bound sequences.

In this assay the target is MaxL homodimer (UniProt P61244). Kind of assay: universal protein-binding microarray (PBM). The settings on record: PBS-based mixture, 10 nM His-tagged protein dimer, 2% milk, 200 ng/uL BSA, 50 ng/uL salmon testes DNA, 0.02% TX-100; detection with Alexa 488 anti-His …; high values mean tight binding; most listed sequences are background and not binding sites; double strand, one strand shown.
UniProt P61244, sequence (P61244 whole entry): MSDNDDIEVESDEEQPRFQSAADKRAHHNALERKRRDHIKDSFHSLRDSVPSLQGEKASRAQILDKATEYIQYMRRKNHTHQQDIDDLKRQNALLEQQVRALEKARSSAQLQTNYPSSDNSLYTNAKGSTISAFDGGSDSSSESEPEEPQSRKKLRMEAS
For CTTTCTCA, the binding signal (normalized occupancy) came to 0.0813.

As for CCTATTGA, the binding signal (normalized occupancy) turned out to be 0.0764. For the sequence CGGTATAA, the binding signal (normalized occupancy) stood at 0.0815. The same measure for ATTAGCGC: 0.0772; for AGTATATG: 0.0859. The same measure for CCACGAGC: 0.0889; for AGAGGCAC: 0.0762. In the case of AAGTTCCT, the binding signal (normalized occupancy) was 0.0724. Turning to GAATCCCC, the binding signal (normalized occupancy) is 0.0773.

Regarding ATCAATAG, the binding signal (normalized occupancy) was determined as 0.0797.

Consider GTGTGTGA, for which the binding signal (normalized occupancy) was found to be 0.0839. Turning to TGTTAAAA, the binding signal (normalized occupancy) came to 0.0788. On to CTCTTGAC, for which the binding signal (normalized occupancy) came to 0.0752. For CAGAATTC, the binding signal (normalized occupancy) amounted to 0.0734. Turning to CTTTCCTA, the binding signal (normalized occupancy) turned out to be 0.0729.

In the case of ACTAGGAA, the binding signal (normalized occupancy) was 0.0729.

In the case of AGCTGAGC, the binding signal (normalized occupancy) was determined as 0.0651. Then AGCAATAC, with 0.079. For CCGAAATA, the binding signal (normalized occupancy) was 0.0705. The same measure for GCGTCACA: 0.0822; for ACTAGGTC: 0.0719. As for CCAGGTCA, the binding signal (normalized occupancy) is 0.0739. Then CAGCAAAC, with 0.0788; and AAGTTGCT, with 0.0701. Then AATGCCAA, with 0.0756; and CCCGCGGC, with 0.067. Turning to AAAATGTC, the binding signal (normalized occupancy) was 0.0794. Then ACACTCTA, with 0.074; and GGGGTGAA, with 0.0785; and GCCTTATA, with 0.0822. Take ATGGTTAA: the binding signal (normalized occupancy) stood at 0.0737. The same measure for GAACGAGC: 0.0745; for ACGCCAAT: 0.0803.

With AGCCGGAT, the binding signal (normalized occupancy) turned out to be 0.0694.

On to CGCATGAG, for which the binding signal (normalized occupancy) stood at 0.0969.

For ACGTGTCC, the binding signal (normalized occupancy) came to 0.0932. As for CACGTTCA, the binding signal (normalized occupancy) came out at 0.0904. Regarding GGGATTAA, the binding signal (normalized occupancy) turned out to be 0.0776.

For the sequence CGATCCAC, the binding signal (normalized occupancy) is 0.0843. Turning to AGACCGGG, the binding signal (normalized occupancy) came out at 0.0654. Then CCTCTAAA, with 0.0778; and GTCGACAC, with 0.0728. The same measure for CTCCATCC: 0.0804; for CCGGCTCC: 0.0662. The same measure for CCATACAG: 0.0794; for GCCATAGA: 0.0739; for TCGTGGCA: 0.0869. With GCTCACAC, the binding signal (normalized occupancy) stood at 0.0846.

For the sequence ACTTCCCA, the binding signal (normalized occupancy) amounted to 0.0801. The same measure for GACGCATA: 0.0777; for GAGAGAGC: 0.0732; for AGATGTGA: 0.085. The same measure for AGACGGGA: 0.0744; for CTAAGAAG: 0.0744; for TACACTGA: 0.0734.

Turning to ACGATCGC, the binding signal (normalized occupancy) is 0.0709. The same measure for CGCGAAGC: 0.0677; for CAGTTGGC: 0.0723; for CCAAGTGC: 0.0678. Then ATAATGAT, with 0.0829; and AAAGCATG, with 0.104; and ACCAAGAA, with 0.0736.

In the case of ATACCATC, the binding signal (normalized occupancy) worked out at 0.0856. The same measure for GGTGCCAC: 0.0739.

As for CTGATCAC, the binding signal (normalized occupancy) was 0.0776. The same measure for CCCTAGCC: 0.0744; for AATATGCA: 0.0847. With TAGAACCA, the binding signal (normalized occupancy) was 0.0767. On to ATTGCTCG, for which the binding signal (normalized occupancy) was found to be 0.0776. For the sequence GCAGTAAA, the binding signal (normalized occupancy) is 0.0758.

AGAAGCAT: the binding signal (normalized occupancy) stood at 0.0841. Consider AGCTTCCG, for which the binding signal (normalized occupancy) is 0.068. As for AATCAGCA, the binding signal (normalized occupancy) is 0.0812. In the case of GCTTTCGA, the binding signal (normalized occupancy) is 0.067. As to AGCTGGAG, the binding signal (normalized occupancy) amounted to 0.0708. The same measure for ATTGGGGC: 0.0771; for CACCGGCC: 0.0709; for GCAGTTCC: 0.0712.

Regarding CACGGCTA, the binding signal (normalized occupancy) was 0.0703. Then CACAGGAA, with 0.0754; and CCCTCATA, with 0.0847; and CTCAGAGA, with 0.0698. Then ACGTGCGC, with 0.113; and GACGTACC, with 0.0761; and CAATGACG, with 0.0749.

For the sequence CGCGTCGC, the binding signal (normalized occupancy) turned out to be 0.0637.

On to AGGCCGAT, for which the binding signal (normalized occupancy) was determined as 0.0714. Turning to CTATCGAA, the binding signal (normalized occupancy) was 0.0758. Then AACCATCC, with 0.0757. Then GAGGGTTA, with 0.0763; and ATCTTCCG, with 0.0758; and AATCTTAC, with 0.0743. AATGATGA: the binding signal (normalized occupancy) was 0.084.

Take GAAGTAAA: the binding signal (normalized occupancy) worked out at 0.0723. The same measure for CACGCAGC: 0.085. Regarding AGTAAGAA, the binding signal (normalized occupancy) worked out at 0.0725. The same measure for TCAGGGAA: 0.0724; for ACGGTGCA: 0.0756; for ATAGATAC: 0.0866.

Regarding GTACGGGA, the binding signal (normalized occupancy) turned out to be 0.0747. As to CGAAGGCG, the binding signal (normalized occupancy) was 0.0734. The same measure for ACCACTGG: 0.0709; for CAGTAGGA: 0.0663. TATCGCCA: the binding signal (normalized occupancy) came out at 0.0743.

On to ACCTAAAC, for which the binding signal (normalized occupancy) is 0.0721. The same measure for GGTAACCA: 0.0775; for CACTGATG: 0.0715. Regarding GTCACGGA, the binding signal (normalized occupancy) is 0.076. Then CACGACGG, with 0.0811; and GGGTAGAA, with 0.0805. On to AGCGAGAC, for which the binding signal (normalized occupancy) was 0.068. As for ATCTCCGC, the binding signal (normalized occupancy) stood at 0.0705.

CGTTCGAC: the binding signal (normalized occupancy) was determined as 0.073.

As for AAACCATC, the binding signal (normalized occupancy) was 0.0742. Regarding AAGTAGGG, the binding signal (normalized occupancy) turned out to be 0.0748. The same measure for ACGTGGCG: 0.107; for ATCGAGAA: 0.0738. Then AAAGGATG, with 0.078; and CAACTAGA, with 0.0757. The same measure for AGACCTGG: 0.0738; for CCGTACGC: 0.072; for AGAAAAGC: 0.0685. In the case of CTCACCGA, the binding signal (normalized occupancy) stood at 0.0723. Then ACCCCTCC, with 0.0811. On to AGGAGAGC, for which the binding signal (normalized occupancy) was 0.071. Consider AATAGGAT, for which the binding signal (normalized occupancy) was determined as 0.0766. GGCACCCA: the binding signal (normalized occupancy) worked out at 0.0735. The same measure for CTGTCCAA: 0.0722; for GGGTGTCA: 0.074. Then CGGTGAAC, with 0.0739; and CACGCACG, with 0.096. As for AACAGCGT, the binding signal (normalized occupancy) was determined as 0.0788. Then ATCACACG, with 0.0937; and AGAGAGGC, with 0.0704; and GTTCGGTA, with 0.0727.

Regarding TGGACAAA, the binding signal (normalized occupancy) is 0.0731. On to GCGAACAA, for which the binding signal (normalized occupancy) came to 0.0729. As for CCCCGGAA, the binding signal (normalized occupancy) stood at 0.0711.

For the sequence CTTCCCCC, the binding signal (normalized occupancy) was 0.0849. Consider GGGACCCA, for which the binding signal (normalized occupancy) turned out to be 0.077. Consider TCCCTTCA, for which the binding signal (normalized occupancy) was determined as 0.0708.

For the sequence AATTCGTG, the binding signal (normalized occupancy) turned out to be 0.0753. Then CAACGGCG, with 0.0721; and AATGAGAG, with 0.0794; and ATGTTCAC, with 0.083.

On to GAAGCCTA, for which the binding signal (normalized occupancy) was found to be 0.0741. The same measure for AATTTGTC: 0.0683; for CGAACAAA: 0.075; for GGATACAC: 0.0837. Regarding CCGATGGA, the binding signal (normalized occupancy) came to 0.0694. Regarding GATGCTAC, the binding signal (normalized occupancy) came out at 0.081. As for CAATGAAG, the binding signal (normalized occupancy) is 0.0754. Then AGTGTATG, with 0.0768. With GTGTGCAA, the binding signal (normalized occupancy) turned out to be 0.0818. As to ATGTGTCG, the binding signal (normalized occupancy) stood at 0.0903. The same measure for CAACTAAA: 0.075. Then GCATGGCC, with 0.0963; and ATGTACCA, with 0.0841; and ACTAGTAG, with 0.075. The same measure for AGCATGCT: 0.134. ATCCTCCC: the binding signal (normalized occupancy) was 0.08. CAGCACGC: the binding signal (normalized occupancy) came to 0.0982.

For the sequence GAAATTCA, the binding signal (normalized occupancy) amounted to 0.0712. In the case of AAGTTTGC, the binding signal (normalized occupancy) turned out to be 0.0742. With CCAGATGA, the binding signal (normalized occupancy) was 0.0784.

Turning to CACGGGCA, the binding signal (normalized occupancy) was 0.081. The same measure for TTGTCAAA: 0.0728. On to TCGTATCA, for which the binding signal (normalized occupancy) turned out to be 0.0809. On to AGCGCGCC, for which the binding signal (normalized occupancy) amounted to 0.0749. With TGCGTGAA, the binding signal (normalized occupancy) turned out to be 0.0808. Turning to AGGTACCC, the binding signal (normalized occupancy) turned out to be 0.0689.

Consider CAGCCGTC, for which the binding signal (normalized occupancy) is 0.0668. The same measure for GATAAGTA: 0.0776; for AGATTGGA: 0.0757.

Turning to CTCGTACA, the binding signal (normalized occupancy) is 0.0824.

In the case of ATCAAACA, the binding signal (normalized occupancy) was 0.0837.

Take AACTGGCC: the binding signal (normalized occupancy) was determined as 0.0714.

Regarding GGATCCCC, the binding signal (normalized occupancy) was determined as 0.0758. On to TGCTGTAA, for which the binding signal (normalized occupancy) came to 0.071. Then AAATCGCT, with 0.0685; and CGTCTTGC, with 0.0704; and AGATCGCT, with 0.0709. The same measure for ATGGGGAA: 0.0844; for CCATACGC: 0.0803. Consider AGCCTGAA, for which the binding signal (normalized occupancy) stood at 0.073. The same measure for ACTGAGAG: 0.0734; for AGCTGACC: 0.0672; for CCAGGAGC: 0.0656. The same measure for ATTATAAT: 0.0809. As to GACATCAA, the binding signal (normalized occupancy) is 0.0726.

As for AATTACGA, the binding signal (normalized occupancy) was found to be 0.0775. Consider AAAGAAAG, for which the binding signal (normalized occupancy) was 0.0763. The same measure for AAGCCAGA: 0.0728; for AAAGAAGT: 0.0706.

Regarding AAGTCGGC, the binding signal (normalized occupancy) was found to be 0.0693.

As to GATAGTGA, the binding signal (normalized occupancy) worked out at 0.0749. As to ATTCATCA, the binding signal (normalized occupancy) was 0.088. Then ACATGACG, with 0.0854. The same measure for AATATACG: 0.0866; for TATAGAAA: 0.0822; for AAAGCGAA: 0.0655. The same measure for AGGGGATG: 0.0818; for AGTCCCGC: 0.0715. For the sequence ACCCACGA, the binding signal (normalized occupancy) came out at 0.0913. Turning to CAGCGTAG, the binding signal (normalized occupancy) came to 0.0714. For AGCGTTAA, the binding signal (normalized occupancy) is 0.0712. On to AAACAGCA, for which the binding signal (normalized occupancy) is 0.0759. The same measure for AGCGCCTA: 0.0724.

In the case of ACGCTTCG, the binding signal (normalized occupancy) turned out to be 0.0784. The same measure for CTTAGAAA: 0.0689.

Turning to CAAATCTG, the binding signal (normalized occupancy) was determined as 0.0784. For the sequence CGGGTAAC, the binding signal (normalized occupancy) was 0.076. Then ATAAGGTC, with 0.0876; and CGTGCGTA, with 0.0916; and AGGGAAAC, with 0.0757.

Take GTGCAACA: the binding signal (normalized occupancy) came out at 0.08. For CAGAAACA, the binding signal (normalized occupancy) was 0.0809. As for TAAGCGTA, the binding signal (normalized occupancy) amounted to 0.073. The same measure for AAATAAGG: 0.0746.
